Reference: paper PMC8915838 (Proceedings of the National Academy of Sciences of the …, 2022)

Target: the molecule itself
Assay: cross-linking

B1: LTB4 receptor 1 (BLT1) (receptor)
chain: MNTTSSAAPPSLGVEFISLLAIILLSVALAVGLPGNSFVVWSILKRMQKRSVTALMVLNLALADLAVLLTAPFFLHFLAQGTWSFGLAGCRLCHYVCGVSMYASVLLITAMSLDRSLAVARPFVSQKLRTKAMARRVLAGIWVLSFLLATPVLAYRTVVPWKTNMSLCFPRYPSEGHRAFHLIFEAVTGFLLPFLAVVASYSDIGRRLQARRFRRSRRTGRLVVLIILTFAAFWLPYHVVNLAEAGRALAGQAAGLGLVGKRLSLARNVLIALAFLSSSVNPVLYACAGGGLLRSAGVGFVAKLLEGTGSEASSTRRGGSLGQTARSGPAALEPGPSESLTASSPLKLNELN
- stoichiometry N: 2 and 3

“And” between values parts separate entries of the source, which are not always exact repeats. Equal entries are not always repeated.
